Reference: ChEMBL document CHEMBL4888484, “Replenishing the malaria drug discovery pipeline: Screening and hit evaluation of the MMV Hit Generation Library 1 (HGL1) against asexual blood stage Plasmodium falciparum ,using a nano luciferase reporter read-out” (2022)
The whole screen tested about 150,000 compounds, of which about 540 (0.36%) showed an effect of 50% or more. The list shows a part of the results.

These molecules were tested on Plasmodium falciparum (assay: Primary screen in NF54 nanoGlo assay, in single point, at 2uM, 72h; a lower Z score goes with more inhibition). Details: timepoint 72 hour.
Type: functional, Erythrocyte

Row | Structure (SMILES) | % Inhibition | Z score
1 | CCc1nc(C)c(-c2c(C#N)c(N)nc3c2N2CCC3CC2)[nH]1 | -6% | 1
2 | Cc1nc(-c2nc(C[C@H](C)N(C)C(=O)OC(C)(C)C)no2)cs1 | -8% | 1.02
3 | CCOc1ccccc1CNC(=O)c1cccn1-c1cccnc1C | -13% | 1.33
4 | CC1CN(CC(=O)N(C(C)C)C(C)C)CC[S+]([O-])C1 (stereo unspecified) | 10% | -1.26
5 | CN1C[C@H]2CN(S(=O)(=O)c3cc(F)cc(F)c3)C[C@@]2(C(=O)N2CCCC2)C1 | -10% | 1.36
6 | COc1ccc(-c2nn([C@@H](C)C(=O)Nc3ccccc3C(F)(F)F)c(=O)c3noc(C)c23)cc1 | -2% | 0.2
7 | CC(C)(C)CC(C)(C)NC(=O)c1ccc2nc(N3C(=O)CCC3=O)sc2c1 | 30% | -4.27
8 | O=C(Nc1ccon1)C1CN(C(=O)c2cccs2)C1 | -10% | 1.72
9 | N#Cc1cnc(NC2CCCCC2CO)c(Cl)c1 (stereo unspecified) | -5% | 1
10 | CC[C@@H](C(=O)N1CCC2(CC1)C(=O)N(CC(=O)NCc1ccc(F)cc1)CN2c1ccccc1)c1ccccc1 | -9% | 1.79
11 | COc1ccc(C(=O)N2CCc3ccc(C(=O)NC4CCCCC4)cc32)cc1 | -22% | 3.51
12 | Cc1ccc([C@H](Cc2ccccc2)NCc2nnn(C)n2)cc1C | 2% | -0.28
13 | COc1cc2cc[n+](C)c(C)c2cc1OC | -6% | 0.78
14 | CNC(=O)N1CCC([C@H]2CCN(S(=O)(=O)c3ccc(C)c(F)c3)C2)CC1 | -12% | 1.35
15 | N=C(N)c1ccnc(OCCc2ccccc2)c1 | 17% | -2.3
16 | COc1ccc2c(c1)OCC([C@H]1Nc3ccccc3C(=O)N1CC(F)(F)F)=C2 | -3% | 0.29
17 | CN1CCN(C(=O)c2cc(F)ccc2OCCN)[C@@H](c2ccccc2)C1 | -4% | 0.74
18 | CC[C@H]1C(=O)NCCCN1Cc1noc2c1CCCC2 | -3% | 0.66
19 | CN(C)[C@@H](CNC(=O)C(=O)Nc1ccon1)c1ccc2c(c1)CCO2 | -5% | 0.79
20 | Cc1nccn1C[C@H]1CCCN(C(=O)CCC(F)(F)F)C1 | -9% | 1.26
21 | COc1cccc2c1CC[C@]2(N)C(=O)N1CCC(OC(C)C)CC1 | -3% | 0.45

Row | Structure (SMILES) | % Inhibition | Z score
22 | CCC[C@H](NC(C)=O)C(=O)NCCn1cnc(C)c1C | -7% | 0.76
23 | COC[C@H](O)CN1CCC(Oc2ccccn2)C1 (stereo partly specified) | -6% | 1.21
24 | C[C@@H](c1nc2ccccc2c(=O)[nH]1)N1CCCCCCC1 | 35% | -3.94
25 | CC(NC(=O)Nc1nccs1)C1CCCO1 (stereo unspecified) | 14% | -1.89
26 | CC(C1CC1)n1nccc1NC(=O)N1CCCC(OCC2CC2)C1 (stereo unspecified) | -13% | 1.06
27 | CCC[C@@H](CNc1cncc(N(C)C)n1)N(C)C | 1% | -0.2
28 | CO[C@H]1COCC[C@@H]1NC(=O)Cc1cccc(C)c1 | 5% | -0.74
29 | CC(C)n1ccc(CNC(=O)[C@@H]2CN(C)C(=O)N2)n1 | -17% | 2.46
30 | COc1ccnc(C(=O)NCC2(CN3CCN(C)CC3)CC2)c1 | -7% | 1.37
31 | O=C(Nc1ccc(F)cc1)Nc1nccn(-c2ccc(F)cc2)c1=O | -12% | 1.61
32 | CC(C)c1nccn1CC(=O)N(CCC#N)c1cccc(Cl)c1 | 8% | -0.95
33 | O=C(CCc1nc(N2CCCCC2)c2c(-c3ccccc3)noc2n1)NCc1ccccc1Cl | 16% | -2.52
34 | COc1ccc(NC(=O)C2=C(C)Nc3c(C(=O)Nc4cccc(C)c4)cnn3[C@H]2c2ccc(Cl)cc2)cc1 | 13% | -2.26
35 | CCc1ccccc1OCCN(C)Cc1cncn1CC | 0% | -0.09
36 | O=C(c1ccc2[nH]c(CO)nc2c1)N1C[C@@H]2CC[C@H]1CN(Cc1cccnc1)C2 | -3% | 0.54
37 | Cn1cc(Br)c(C(=O)N[C@H]2CCCOC2)cc1=O | -5% | 0.8
38 | Cc1onc(C2CC2)c1C(=O)NC[C@H](C)Cn1ccnc1C | 1% | -0.17
39 | CCN1CCCN(C[C@H]2CN(c3ccccc3)C(=O)O2)CC1 | -18% | 2.32
40 | Cc1ccc(NC(=O)C(C)N2CCCC3(CCOC3)C2)c(Cl)c1 (stereo unspecified) | -20% | 2.19
41 | O=C(NCc1c(F)cc(F)cc1F)C12CCCN1CCC2 | -7% | 0.91
42 | O=C1CC(C(=O)N2C3CCC2COC3)CN1c1ccc(F)cc1 (stereo unspecified) | -6% | 0.63

Row | Structure (SMILES) | % Inhibition | Z score
43 | COc1cccc(CC(=O)N2CCC3(CC2)NC(=O)c2cc(F)ccc2N3C)c1 | -11% | 1.37
44 | CC(C)(C)NC(=O)NC(=O)CN[C@H]1Cc2ccccc2O[C@@H]1C(F)(F)F | -13% | 1.89
45 | Cc1nc([C@H](C)n2ccnc2C(C)C)n(-c2cccc3cccnc23)n1 | -2% | 0.32
46 | O=C(NCCCn1ccnc1)C1CC2CCC1C2 (stereo unspecified) | -7% | 0.91
47 | CCOc1ccc(CCNC(=O)c2ccc(CN3C(=O)CCn4nccc43)cc2)cc1OCC | 16% | -1.92
48 | Cc1nn(C)c(C)c1NC(=O)CN1CCc2c(Cl)cc(Cl)cc2C1 | 0% | -0.03
49 | CCN1C(=O)[C@@H]2[C@H](C1=O)[C@H](C(=O)OC)N[C@@H]2c1ccccc1C(F)(F)F | 3% | -0.57
50 | CC[C@@]12CCCN1C(=O)N(Cc1cccc(CNC(C)=O)c1)C2=O | -6% | 0.75
51 | CN(C)S(=O)(=O)c1ccc2c(c1)CCN2C(=O)[C@@H]1Cc2ccccc2O1 | 3% | -0.43
52 | CCS(=O)(=O)N1CCCN(c2ccc(=O)n(-c3ccc(C)c(C)c3)n2)CC1 | -1% | 0.11
53 | Cn1cncc1-c1ccc(S(=O)(=O)N2CCCCC2)cc1 | -18% | 1.65
54 | Cc1cc(C)c(CN(C)Cc2nncn2C)c(C)c1CO | -1% | 0.11
55 | CCc1ccccc1OCCN1CC[C@]2(O)CCN(C(=O)C3CCCC3)C[C@@H]2C1 | 4% | -0.85
56 | Cc1ccc(O[C@H]2CCOC[C@H]2NC(=O)CCN2CCCCO2)cn1 | -1% | 0.17
57 | O=C(Cc1cccs1)Nc1ncc(Cc2ccccc2)s1 | 36% | -0.8
58 | CC(C)c1ccc(-c2cc3c4nn(Cc5cc(F)cc(F)c5)c(=O)n4ccn3n2)cc1 | 30% | -3.92
59 | C[C@@H](c1nc2cc(Cl)ccc2c(=O)n1C)N(C)C(=O)C(c1ccccc1)c1ccccc1 | -1% | 0.09
60 | O=C1N[C@]2(CCc3ccccc3C2)C(=O)N1CC1CCCCCC1 | -5% | 0.61
61 | CC(=O)N1CCC[C@H]1C(=O)N1CCC(C(Cc2ccc(F)cc2F)N(C)C(=O)c2cccnc2)CC1 (stereo partly specified) | 14% | -1.79
62 | CN(Cc1nnc2n1CCC2)C(=O)CCC(=O)c1ccc(Cl)cc1 | -10% | 0.91
63 | Cc1nsc(C)c1Cn1cnc2c(cnn2C)c1=O | 1% | -0.12

Row | Structure (SMILES) | % Inhibition | Z score
64 | Cc1n[nH]c(-n2cnnc2)c1NC(=O)c1cccs1 | 28% | -3.74
65 | O=C(Nc1ccc(N2CCN(c3ccccc3F)CC2)c(S(=O)(=O)NCc2ccc3c(c2)OCO3)c1)C1CCCCC1 | 2% | -0.33
66 | CCN(CC)c1ccc(C(=O)N(C)c2c(C)noc2C)c(O)c1 | 4% | -0.53
67 | COc1c(C(=O)N2CCC(Cn3nc(C)cc3C)CC2)c(C)nn1C | 5% | -0.58
68 | CC1(C)O[C@@H]2C[C@@](OCc3ccc(F)cc3F)(C(=O)NCCN3CCOCC3)CC(OCc3ccc(C#N)cc3)[C@@H]2O1 (stereo partly specified) | 29% | -3.95
69 | CC(C)(CNC(=O)NC1CCN(C2CCCCC2O)CC1)C1=CCCC1 (stereo unspecified) | -10% | 1.32
70 | O=C(COc1cccc(Cl)c1Cl)c1ccc(N2CCCC2=O)cc1 | -12% | 1.77
71 | Cc1nc[nH]c1C(=O)NCc1sc(C(C)C)nc1C | 10% | -1.94
72 | COc1ccccc1-n1ncnc1[C@@H]1Cc2ccccc2S(=O)(=O)N1 | -13% | 1.12
73 | Cc1nc(N2CCN(C(=O)[C@@H]3CCCO3)CC2)c2sccc2n1 | 14% | -1.87
74 | O=C(Nc1ccc(Br)cc1Br)OC1CCCCC1 | 7% | -1.17
75 | C[C@H](NC(=O)c1cc[nH]c1C1CCC1)c1cn[nH]c1 | 1% | -0.1
76 | COCC[C@]1(NS(=O)(=O)c2ccccc2)CCN(Cc2ccc(C(C)C)cc2)C1 | -7% | 0.84
77 | Cc1nn(CC(C)C)c(Cl)c1CNCC[C@H]1CCCO1 | -5% | 0.7
78 | C[C@]1(O)CCN(C(=O)Cc2cccc(O)c2)C[C@H]1O | -6% | 0.83
79 | C[C@@]1(C(=O)N2CC(=O)N(C3CC3)C2)CCCNC1=O | -13% | 1.07
80 | CC[C@@H](c1cccnc1)N(C)Cc1ccc2nonc2c1 | -8% | 0.93
81 | Cc1ccc(F)c(-n2cc(O)c(C(=O)N3CCOC4(CCC4)C3)n2)c1 | -4% | 0.49
82 | CCOc1ncccc1C(=O)Nc1ccccc1-c1nnc(C)o1 | -10% | 1.16
83 | CN1CCNC(=O)C12CCN(Cc1c[nH]c3ccccc13)CC2 | -18% | 1.85
